# Experimental data: the supplement of paper PMC8728848
# The other results are listed elsewhere or left out.
# Assays:
# Assay in all cases: glycan array binding signal (z-score within array); higher = stronger binding
# Conditions in all cases: glycan notation: IUPAC condensed, linker removed
# [1] = target: Neu5Ac(a2-3)Gal(b1-4)GlcNAc(b1-2)Man(a1-3)[Neu5Ac(a2-3)Gal(b1-4)GlcNAc(b1-2)Man(a1-6)]Man(b1-4)GlcNAc(b1-4)[Fuc(a1-6)]GlcNAc
# How it was run: (§1)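 The binding signal is a Z-score computed within each array and averaged over linkers. Arrays of the same protein sequence at different concentrations or buffers were also averaged together. Data originate from 3228 arrays in the Consortium for Functional Glycomics database, kept only where the protein sequence was available.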
# [2] = target: Neu5Ac(a2-3)Gal(b1-4)GlcNAc(b1-2)Man(a1-3)[Neu5Ac(a2-6)Gal(b1-4)GlcNAc(b1-2)Man(a1-6)]Man(b1-4)GlcNAc(b1-4)GlcNAc
# How it was run: as §1
# [3] = target: Neu5Ac(a2-3)Gal(b1-4)GlcNAc(b1-2)[Neu5Ac(a2-3)Gal(b1-4)GlcNAc(b1-4)]Man(a1-3)[GlcNAc(b1-4)][Neu5Ac(a2-3)Gal(b1-4)GlcNAc(b1-2)[Neu5Ac(a2-3)Gal(b1-4)GlcNAc(b1-6)]Man(a1-6)]Man(b1-4)GlcNAc(b1-4)GlcNAc
# How it was run: as §1
# [4] = target: Neu5Ac(a2-3)Gal(b1-4)GlcNAc(b1-2)[Neu5Ac(a2-3)Gal(b1-4)GlcNAc(b1-4)]Man(a1-3)[GlcNAc(b1-4)][Neu5Ac(a2-3)Gal(b1-4)GlcNAc(b1-4)Man(a1-6)]Man(b1-4)GlcNAc(b1-4)GlcNAc
# How it was run: as §1
# [5] = target: Neu5Ac(a2-3)Gal(b1-4)GlcNAc(b1-2)[Neu5Ac(a2-3)Gal(b1-4)GlcNAc(b1-6)]Man(a1-6)[Neu5Ac(a2-3)Gal(b1-4)GlcNAc(b1-2)Man(a1-3)][GlcNAc(b1-4)]Man(b1-4)GlcNAc(b1-4)GlcNAc
# How it was run: as §1
# [6] = target: Neu5Ac(a2-3)Gal(b1-4)GlcNAc(b1-3)Gal
# How it was run: as §1
# [7] = target: Neu5Ac(a2-3)Gal(b1-4)GlcNAc(b1-3)Gal(b1-3)GlcNAc
# How it was run: as §1
# [8] = target: Neu5Ac(a2-3)Gal(b1-4)GlcNAc(b1-3)Gal(b1-4)GlcNAc
# How it was run: as §1
# [9] = target: Neu5Ac(a2-3)Gal(b1-4)GlcNAc(b1-3)Gal(b1-4)GlcNAc(b1-2)Man(a1-3)[Neu5Ac(a2-3)Gal(b1-4)GlcNAc(b1-3)Gal(b1-4)GlcNAc(b1-2)Man(a1-6)]Man(b1-4)GlcNAc(b1-4)GlcNAc
# How it was run: as §1
# [10] = target: Neu5Ac(a2-3)Gal(b1-4)GlcNAc(b1-3)Gal(b1-4)GlcNAc(b1-3)Gal(b1-4)GlcNAc
# How it was run: as §1
# [11] = target: Neu5Ac(a2-3)Gal(b1-4)GlcNAc(b1-3)Gal(b1-4)GlcNAc(b1-3)Gal(b1-4)GlcNAc(b1-2)Man(a1-3)[Neu5Ac(a2-3)Gal(b1-4)GlcNAc(b1-3)Gal(b1-4)GlcNAc(b1-3)Gal(b1-4)GlcNAc(b1-2)Man(a1-6)]GalNAc
# How it was run: as §1
# [12] = target: Neu5Ac(a2-3)Gal(b1-4)GlcNAc(b1-3)Gal(b1-4)GlcNAc(b1-3)GalNAc
# How it was run: as §1
# [13] = target: Neu5Ac(a2-3)Gal(b1-4)GlcNAc(b1-3)Gal(b1-4)GlcNAc(b1-3)[Neu5Ac(a2-3)Gal(b1-4)GlcNAc(b1-3)Gal(b1-4)GlcNAc(b1-6)]GalNAc
# How it was run: as §1
# [14] = target: Neu5Ac(a2-3)Gal(b1-4)GlcNAc(b1-3)Gal(b1-4)GlcNAc(b1-6)[Gal(b1-3)]GalNAc
# How it was run: as §1
# [15] = target: Neu5Ac(a2-3)Gal(b1-4)GlcNAc(b1-3)Gal(b1-4)[Fuc(a1-3)]GlcNAc
# How it was run: as §1
# [16] = target: Neu5Ac(a2-3)Gal(b1-4)GlcNAc(b1-3)GalNAc
# How it was run: as §1
# [17] = target: Neu5Ac(a2-3)Gal(b1-4)GlcNAc(b1-3)[Neu5Ac(a2-3)Gal(b1-4)GlcNAc(b1-6)]GalNAc
# How it was run: as §1
# [18] = target: Neu5Ac(a2-3)Gal(b1-4)GlcNAc(b1-6)GalNAc
# How it was run: as §1
# [19] = target: Neu5Ac(a2-3)Gal(b1-4)GlcNAc(b1-6)[Gal(b1-3)]GalNAc
# How it was run: as §1
# [20] = target: Neu5Ac(a2-3)Gal(b1-4)GlcNAc(b1-6)[Neu5Ac(a2-3)Gal(b1-3)]GalNAc
# How it was run: as §1
# [21] = target: Neu5Ac(a2-3)Gal(b1-4)GlcNAc6S
# How it was run: as §1
# [22] = target: Neu5Ac(a2-3)Gal(b1-4)[Fuc(a1-3)]GlcNAc
# How it was run: as §1
# [23] = target: Neu5Ac(a2-3)Gal(b1-4)[Fuc(a1-3)]GlcNAc(b1-2)Man
# How it was run: as §1
# [24] = target: Neu5Ac(a2-3)Gal(b1-4)[Fuc(a1-3)]GlcNAc(b1-3)Gal
# How it was run: as §1
# [25] = target: Neu5Ac(a2-3)Gal(b1-4)[Fuc(a1-3)]GlcNAc(b1-3)Gal(b1-4)GlcNAc
# How it was run: as §1
# [26] = target: Neu5Ac(a2-3)Gal(b1-4)[Fuc(a1-3)]GlcNAc(b1-3)Gal(b1-4)[Fuc(a1-3)]GlcNAc(b1-3)Gal(b1-4)[Fuc(a1-3)]GlcNAc
# How it was run: as §1
# [27] = target: Neu5Ac(a2-3)Gal(b1-4)[Fuc(a1-3)]GlcNAc(b1-3)GalNAc
# How it was run: as §1
# [28] = target: Neu5Ac(a2-3)Gal(b1-4)[Fuc(a1-3)]GlcNAc(b1-6)[Gal(b1-3)]GalNAc
# How it was run: as §1
# [29] = target: Neu5Ac(a2-3)Gal(b1-4)[Fuc(a1-3)]GlcNAc(b1-6)[Neu5Ac(a2-3)Gal(b1-3)]GalNAc
# How it was run: as §1
# [30] = target: Neu5Ac(a2-3)Gal(b1-4)[Fuc(a1-3)]GlcNAc6S
# How it was run: as §1
# [31] = target: Neu5Ac(a2-3)Gal6S(b1-4)GlcNAc
# How it was run: as §1
# [32] = target: Neu5Ac(a2-3)Gal6S(b1-4)[Fuc(a1-3)]GlcNAc
# How it was run: as §1
# Neu5Ac(a2-3)GalNAc = target: Neu5Ac(a2-3)GalNAc
# How it was run: as §1
# [33] = target: Neu5Ac(a2-3)GalNAc(b1-4)GlcNAc
# How it was run: as §1
# [34] = target: Neu5Ac(a2-3)[GalNAc(b1-4)]Gal(b1-4)Glc
# How it was run: as §1
# [35] = target: Neu5Ac(a2-3)[GalNAc(b1-4)]Gal(b1-4)GlcNAc
# How it was run: as §1
# [36] = target: Neu5Ac(a2-3)[GalNAc(b1-4)]Gal(b1-4)GlcNAc(b1-3)GalNAc
# How it was run: as §1
# [37] = target: Neu5Ac(a2-3)[Neu5Ac(a2-6)]GalNAc
# How it was run: as §1
# Neu5Ac(a2-6)Gal = target: Neu5Ac(a2-6)Gal
# How it was run: as §1
# [38] = target: Neu5Ac(a2-6)Gal(b1-3)GlcNAc(b1-3)[Gal(b1-4)GlcNAc(b1-6)]Gal(b1-4)Glc
# How it was run: as §1
# Neu5Ac(a2-6)Gal(b1-4)Glc = target: Neu5Ac(a2-6)Gal(b1-4)Glc
# How it was run: as §1
# [39] = target: Neu5Ac(a2-6)Gal(b1-4)GlcNAc
# How it was run: as §1
# [40] = target: Neu5Ac(a2-6)Gal(b1-4)GlcNAc(b1-2)Man
# How it was run: as §1
# [41] = target: Neu5Ac(a2-6)Gal(b1-4)GlcNAc(b1-2)Man(a1-3)Man(b1-4)GlcNAc(b1-4)GlcNAc
# How it was run: as §1
# [42] = target: Neu5Ac(a2-6)Gal(b1-4)GlcNAc(b1-2)Man(a1-3)[Gal(b1-4)GlcNAc(b1-2)Man(a1-6)]Man(b1-4)GlcNAc(b1-4)GlcNAc
# How it was run: as §1
binder,measurement,setting,value
Epa15 (Candida glabrata) (protein) MGSSHHHHHHSSGLVPRGSHMASDPTTFPLGCSPEFTKTKKGLSMELYRYDYLPPGSYPCWDSAYLNPSYPRTGYKAKKLIATVDGVSGDINFKFNPKFGCKAIPDYLPSNFNYHEPITITNFTMILYGYFMPKTTAFHTFYVTADDLLFMNFGAGNAFDCCRREETADKFGNYAAYSVWGKKSLKNELTVYLHTGVYYPIRLFYNNRDYIAQLDIRFKTEHSNAIITNFTDYFYSVDDSSLGCPGLI,glycan array binding signal (z-score),[1],-0.384
same,glycan array binding signal (z-score),[2],0.879
same,glycan array binding signal (z-score),[3],-0.494
same,glycan array binding signal (z-score),[4],-0.546
same,glycan array binding signal (z-score),[5],-0.384
same,glycan array binding signal (z-score),[6],-0.552
same,glycan array binding signal (z-score),[7],-0.434
same,glycan array binding signal (z-score),[8],-0.109
same,glycan array binding signal (z-score),[9],0.079
same,glycan array binding signal (z-score),[10],-0.448
same,glycan array binding signal (z-score),[11],2.56
same,glycan array binding signal (z-score),[12],-0.234
same,glycan array binding signal (z-score),[13],1.06
same,glycan array binding signal (z-score),[14],0.393
same,glycan array binding signal (z-score),[15],-0.542
same,glycan array binding signal (z-score),[16],-0.479
same,glycan array binding signal (z-score),[17],-0.483
same,glycan array binding signal (z-score),[18],0.478
same,glycan array binding signal (z-score),[19],-0.062
same,glycan array binding signal (z-score),[20],-0.592
same,glycan array binding signal (z-score),[21],-0.135
same,glycan array binding signal (z-score),[22],-0.41
same,glycan array binding signal (z-score),[23],-0.56
same,glycan array binding signal (z-score),[24],-0.443
same,glycan array binding signal (z-score),[25],0.174
same,glycan array binding signal (z-score),[26],-0.458
same,glycan array binding signal (z-score),[27],0.763
same,glycan array binding signal (z-score),[28],1.87
same,glycan array binding signal (z-score),[29],1.41
same,glycan array binding signal (z-score),[30],-0.461
same,glycan array binding signal (z-score),[31],-0.229
same,glycan array binding signal (z-score),[32],-0.48
same,glycan array binding signal (z-score),Neu5Ac(a2-3)GalNAc,-0.487
same,glycan array binding signal (z-score),[33],-0.394
same,glycan array binding signal (z-score),[34],-0.077
same,glycan array binding signal (z-score),[35],-0.321
same,glycan array binding signal (z-score),[36],0.848
same,glycan array binding signal (z-score),[37],-0.406
same,glycan array binding signal (z-score),Neu5Ac(a2-6)Gal,0.848
same,glycan array binding signal (z-score),[38],-0.156
same,glycan array binding signal (z-score),Neu5Ac(a2-6)Gal(b1-4)Glc,-0.36
same,glycan array binding signal (z-score),[39],-0.488
same,glycan array binding signal (z-score),[40],-0.301
same,glycan array binding signal (z-score),[41],-0.073
same,glycan array binding signal (z-score),[42],-0.271
